Experimental data from the supplement of paper PMC4967469.
Lines with a small IC50 respond at low doses; a fit beyond the top or the lowest dose is shown as a bound at that dose. The AUC spans the tested range (256-fold, ending at the top dose) of the same fit; values near 1 show little effect. For some of these results: Any top dose called inferred is not printed in the source and was worked back from the curve model. For some of these results: An entry number marks a drug with two screens in the source, which often give different values.

Experiments:
Assay in all cases: Viability of human cancer cell lines after 72 h of drug (GDSC screen)
[1] = compound: CC/C(=C(\c1ccccc1)c1ccc(OCCN(C)C)cc1)c1ccccc1 [Tamoxifen]; settings: top dose 5 µM
Protocol: (§1)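 Human cancer cell lines in 384-well plates, medium with 10% serum, drug for 72 h over a 256-fold dose range (nine 2-fold or five 4-fold steps up to the top dose). Adherent lines were fixed and stained with the nucleic acid dye Syto60, suspension lines read with resazurin; signal relative to control wells, capped at 0 and 100%. One two-parameter sigmoid per drug and line, fitted in a mixed model over all curves with the slope shared within a line.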

[2] = compound: CCCC(=O)OCc1ccc(OC(=O)/C=C(C)/C=C/C=C(C)/C=C/C2=C(C)CCCC2(C)C)cc1 [VNLG/124]; settings: top dose 5.12 µM; top dose inferred
Protocol: as §1

[3] = compound: CN(NC(=O)CC(=O)NN(C)C(=S)c1ccccc1)C(=S)c1ccccc1 [Elesclomol]; settings: top dose 0.2 µM; top dose inferred
Protocol: as §1

[4] = compound: COc1cc(N2CCC(C(N)=O)CC2)ccc1Nc1nc(N)c(Cl)c(Nc2ccccc2S(=O)(=O)C(C)C)n1 [HG-5-88-01]; settings: top dose 10 µM; top dose inferred
Protocol: as §1

[5] = compound: Cc1c(N)nc([C@H](CC(N)=O)NC[C@H](N)C(N)=O)nc1C(=O)N[C@H](C(=O)N[C@H](C)[C@@H](O)[C@H](C)C(=O)N[C@H](C(=O)NCCc1nc(-c2nc(C(=O)NCCC[S+](C)C)cs2)cs1)[C@@H](C)O)[C@@H](OC1OC(CO)C(O)C(O)C1OC1OC(CO)C(O)C(OC(N)=O)C1O)c1cnc[nH]1 [Bleomycin]
Protocol: as §1

[6] = compound: Cc1ccc(NC(=O)c2ccc(CN3CCN(C)CC3)cc2)cc1Nc1nc(-c2cccnc2)cs1 [Masitinib]; settings: top dose 20 µM
Protocol: as §1

[7] = compound: O=C(/C=C/c1ccc(CN(CCO)CCc2c[nH]c3ccccc23)cc1)NO [LAQ824]; settings: top dose 1.024 µM; top dose inferred
Protocol: as §1

[8] = compound: O=C(Nc1ccc(OC(F)(F)F)cc1)c1sccc1NCc1ccnc2ccccc12 [OSI-930]; settings: top dose 10.24 µM
Protocol: as §1

[9] = compound: O=C(Nc1cccc(Nc2ncc(Br)c(NCCc3cnc[nH]3)n2)c1)N1CCCC1 [BX-912]; settings: top dose 10.24 µM; top dose inferred
Protocol: as §1

[10] = compound: O=S(=O)(O)c1ccc2cc(N=Nc3cc(S(=O)(=O)O)c4cccnc4c3O)ccc2c1 [NSC-87877]; settings: top dose 16 µM; top dose inferred
Protocol: as §1

[11] = top dose 50 µM, screen: GDSC drug entry 1378, top dose inferred
[12] = top dose 64 µM, screen: GDSC drug entry 190

Cell Line | AUC [1] | IC50 [1] [µM] | AUC [2] | IC50 [2] [µM] | AUC [3] | IC50 [3] [µM] | AUC [4] | IC50 [4] [µM] | AUC [5, 11] | IC50 [5, 11] [µM] | AUC [5, 12] | IC50 [5, 12] [µM] | AUC [6] | IC50 [6] [µM] | AUC [7] | IC50 [7] [µM] | AUC [8] | IC50 [8] [µM] | AUC [9] | IC50 [9] [µM] | AUC [10] | IC50 [10] [µM]
NCI-H2110 (non-small cell lung carcinoma, adherent) | 0.98 | > 5 | 0.986 | > 5.12 | 0.773 | 0.0799 | 0.861 | 8.78 | 0.698 | 11.5 | 0.361 | 1.63 | 0.986 | > 20 | 0.585 | 0.11 | 0.986 | > 10.2 | 0.985 | > 10.2 | 0.986 | > 16
RERF-LC-KJ (lung adenocarcinoma, adherent) | 0.977 | > 5 | 0.983 | > 5.12 | 0.474 | 0.0106 | 0.974 | > 10 | 0.547 | 4.2 | 0.734 | 19 | 0.966 | > 20 | 0.83 | 0.668 | 0.978 | > 10.2 | 0.935 | > 10.2 | 0.987 | > 16
NAMALWA (Burkitt lymphoma, suspension) | 0.984 | > 5 | 0.588 | 0.535 | 0.452 | 0.00943 | 0.983 | > 10 | 0.75 | 14.1 | 0.726 | 15.5 | 0.886 | 16 | 0.366 | 0.0292 | 0.954 | > 10.2 | 0.734 | 2.61 | 0.989 | > 16
RPMI-8866 (chronic myeloid leukaemia, suspension) | 0.893 | > 5 | 0.967 | > 5.12 | 0.329 | 0.00435 | 0.967 | > 10 |  |  | 0.604 | 7.54 | 0.847 | 13.2 | 0.541 | 0.0821 | 0.95 | > 10.2 | 0.974 | > 10.2 | 0.968 | > 16
LOU-NH91 (lung squamous cell carcinoma, adherent) | 0.982 | > 5 | 0.983 | > 5.12 | 0.664 | 0.0373 | 0.842 | 7.94 | 0.144 | 0.213 | 0.885 | > 64 | 0.941 | > 20 | 0.633 | 0.155 | 0.981 | > 10.2 | 0.92 | > 10.2 | 0.979 | > 16
CHSA0108 (chondrosarcoma, adherent) | 0.943 | > 5 | 0.983 | > 5.12 | 0.734 | 0.0657 | 0.811 | 6.38 | 0.584 | 5.51 | 0.861 | > 64 | 0.955 | > 20 | 0.592 | 0.119 | 0.981 | > 10.2 | 0.84 | 8.66 | 0.984 | > 16
